Measurements from ChEMBL document CHEMBL4888484, “Replenishing the malaria drug discovery pipeline: Screening and hit evaluation of the MMV Hit Generation Library 1 (HGL1) against asexual blood stage Plasmodium falciparum ,using a nano luciferase reporter read-out” (2022).
Out of some 4,800 compounds screened, about 420 (8.8%) showed an effect of 50% or more. The list shows a part of the results.

test system: Plasmodium falciparum; assay: Confirmatory screen in NF54 nanoGlo assay, in single point, at 2uM, 72h; assay type: functional, Erythrocyte; settings: timepoint 72 hour

| Structure (SMILES) | % Inhibition |
| --- | --- |
| COc1cccc(NC(=O)Cn2c(=O)n(C)c(=O)c3sc(N4CCCC4)nc32)c1 | 0% |
| O=C1COc2ccc(S(=O)(=O)N[C@H]3COc4ccccc43)cc2N1 | -3% |
| CCNS(=O)(=O)c1cc(C)ccc1C | 1% |
| COc1ccc(-c2cc3c(N4CCN(C)CC4)nccn3n2)cc1OC | 1% |
| COc1ncccc1CNC(=O)[C@@H]1CCN(c2cc(C)cc(C)c2)C1=O | 3% |
| CCCn1cc2c(C(=O)Nc3ccc(Br)cc3F)cc(=O)[nH]c2n1 | -13% |
| OC1CCCC1N1CCC(c2ccccc2)CC1 (configuration not stated) | -2% |
| O=C(c1c[nH]c2ccc(Br)cc12)N1CCC[C@H]1c1ccc2c(c1)OCCO2 | 5% |
| Oc1ccc2ncccc2c1[C@@H](Nc1ccccn1)c1cccc(Br)c1 | 67% |
| Nc1nc2ccc(N3CCCC3)cc2s1 | 19% |
| C[n+]1cc(-c2ccc3ccccc3n2)c(C#N)c2ccccc21 | -3% |
| O=C1N[C@H]2C[C@@H](C(=O)NC[C@H]3O[C@H](CCOc4cc(-c5ccccc5)ccc41)CC[C@@H]3O)N(Cc1ccc3c(c1)OCO3)C2 | 11% |
| COCCCn1c(=O)c2ccccc2n(CC(=O)N2CCc3ccccc32)c1=O | -8% |
| C#CCCCOc1cccnc1N1CCC(OC)CC1 | -6% |
| CCn1cc(C(=O)N(C2CCCCC2)C2CCCCC2)c(C)n1 | -19% |
| COc1nccc(NC(=O)c2ccccc2Cl)n1 | -13% |
| O=C(Nc1ccc(N2CCC(Cc3ccccc3)CC2)cc1C(=O)O)c1ccc(F)cc1 | -12% |
| NC(=O)NC(=O)COc1ccc(Br)cc1 | 1% |
| O=C(c1cn(CC2CC2)nn1)N1CCCC2(CC2)C1 | 2% |
| Cc1ccc(C(=O)Nc2nnc(-c3ccoc3C)o2)cc1C | -2% |
| Cc1cc(NC(=O)Cn2cnc3nc(N(C)Cc4ccccc4)sc3c2=O)no1 | -7% |
| Cc1ccc(C(=O)NCc2ccc(-c3nc4ccccc4s3)cc2)cc1 | -9% |
| O=C1NCCCOc2cccc(c2)[C@H]2c3ccc(cc3CCN2C(=O)CCN2CCOCC2)Oc2ccc(O)c1c2 | 59% |
| COc1ccc(NC(=O)c2nc(Nc3ccccc3)c3ccccc3n2)cc1 | 17% |
| COCCN(Cc1nc(C(=O)NC(C)C)cs1)C(=O)Nc1ccc(C(C)C)cc1 | 4% |
| CCOC(=O)N1CCc2c(nc(-c3ccc(C)cc3)n(CC(=O)Nc3ccc(C(C)C)cc3)c2=O)C1 | -16% |

| Structure (SMILES) | % Inhibition |
| --- | --- |
| CCOc1ccc(CN2CC[C@H](Nc3ncccn3)[C@@H](O)C2)cc1Cl | -13% |
| C=CCNC(=O)N(Cc1ccccn1)c1ccc(Oc2cccc(C)c2C)nc1 | 6% |
| CC(C)c1ccc(NC(=O)CCCC(=O)O)cc1 | 3% |
| COc1ncnc2c1CN(C(=O)c1cc3c(s1)CC[C@H](C)C3)CC2 | -1% |
| CN(C)CCNC(=O)Nc1ccn(-c2ncccc2Cl)n1 | 1% |
| O=C(COc1ccccc1)N1CC(n2cnnc2C2CC2)C1 | -11% |
| O=C1CN(CC(=O)N2CCCC2CC2CC3CCC2C3)C(=O)N1 (configuration not stated) | -9% |
| COc1cc(OC)c(S(=O)(=O)NC(C)C)cc1S(=O)(=O)NC(C)C | -4% |
| CN(Cc1nnc2n1CCC2)C(=O)Cc1cccs1 | 3% |
| CN(Cc1ccc(-c2ccccc2)cc1)c1cc([C@H]2C[C@@H](N)C2)nc(N)n1 | 49% |
| Cc1ccc(N(CC#N)S(=O)(=O)c2ccc3nnc(C)n3c2)cc1 | -15% |
| CCC(CC)C(=O)Nc1cccc(Cl)c1C | -1% |
| O=C(Nc1ccc(OC2CCC2)c(F)c1)N1CC[C@H](O)C1 | -2% |
| O=C(Cc1ccccc1Cl)N1CCc2[nH]nc(C(=O)N3CCN(c4ccc(F)cc4)CC3)c2C1 | -1% |
| O=C(NCc1ccccc1)c1cnn2c3c(cnc12)CCCCCC3 | 2% |
| C#CCN(CCCc1ccccc1C)[C@H]1CCS(=O)(=O)C1 | -9% |
| Cc1ccnc(-c2ccc(NC(=O)[C@@H]3CCN(c4ccc(Cl)cc4)C3=O)cc2)n1 | -21% |
| NC(=O)c1ccc(C(F)(F)F)n(CC(=O)N(Cc2ccc(F)cc2)C2CCCCC2)c1=O | -6% |
| COc1ccc2c(c1)/C(=C1/SC(C(C)=O)=C(c3ccccc3)S1)C(=S)C(C)(C)N2C(=O)Nc1ccc(Cl)c(Cl)c1 | -7% |
| COc1ccc(NC(=O)C2C3NC(=O)N(c4ccccc4)C2(C)Oc2ccc(Cl)cc23)cc1 (configuration not stated) | -12% |
| NC(=O)COCC(=O)Nc1ccccc1 | -17% |
| COc1cccc(C2=Nc3cccnc3N(CC(=O)Nc3ccc(C)c(Cl)c3)C(=O)C2)c1 | -4% |
| CC(C)Cn1nc2ccc(S(=O)(=O)N3CCOCC3)cn2c1=O | -3% |
| COCCNc1cncc(Br)c1 | -4% |
| O=C(Cc1ccccc1)Nc1cccc2c1C(=O)N(c1ccccc1)C2=O | -14% |
| Cc1cccc2sc(N3CCC[C@H](CNS(N)(=O)=O)C3)nc12 | 1% |

| Structure (SMILES) | % Inhibition |
| --- | --- |
| COc1cccc(NC(=O)N2CCN(c3nc4ccccc4n(Cc4ccccc4)c3=O)CC2)c1 | -3% |
| Cc1c(N=C2NC3(CCCCC3)Cc3ccccc32)c(=O)n(C)n1-c1ccccc1 | -1% |
| O=C1CCCN1c1ccc(-c2csc(C3CC3)n2)cc1 | -12% |
| COc1ccc([C@H](NC(=O)CCc2ccccc2)c2c(O)ccc3ccccc23)cc1 | 41% |
| COCC(=O)NC1CCC(NC(=O)c2csc(COc3cc(C)ccc3C(C)C)n2)CC1 (configuration not stated) | 9% |
| COc1ccc(-c2nn(-c3ccccc3)c(O)c2C(c2ccc(C(=O)O)cc2)c2c(-c3ccc(OC)cc3)nn(-c3ccccc3)c2O)cc1 | 2% |
| CCc1ncsc1C(=O)OCC1(C#N)CCOCC1 | -8% |
| O=C(Nc1ccccc1)Nc1cnc(-n2ccnc2)nc1 | 40% |
| COc1ccsc1S(=O)(=O)N(CCN(C)C)C1CCCC1 | -14% |
| O=C(N1CCC(O)CC1)C(F)(F)Cl | 4% |
| CC(C)(CO)NCc1ccccc1Cl | -3% |
| COc1ccc(CCNC(=O)Cc2ccc3c(c2CO)OCO3)cc1OC | -7% |
| CN(Cc1cccc(OC(F)(F)F)c1)[C@H]1CCc2nn(C)c(=O)n2CC1 | -1% |
| COCc1ncc(-c2noc(C3CC4CCC3C4)n2)c(N)n1 (configuration not stated) | -11% |
| COc1ccc(CN(C)[C@H]2CCc3nn(C)c(=O)n3CC2)c(Cl)c1OC | -11% |
| Cc1ccc(S(=O)(=O)Cc2nc(-c3ccc(C(=O)Nc4c(C)cccc4C)cc3)oc2C)cc1 | 3% |
| CCCCC(=O)N1CCc2[nH]nc(C(=O)NCCc3ccc(OC)cc3)c2C1 | 4% |
| Cc1cc(NC(=O)C(=O)Nc2cnn(CCC(C)C)c2C)n(C)n1 | -7% |
| COc1ccc(CCNC(=O)CCC(=O)Nc2ccc(OCc3ccccc3)cc2)cc1OC | -11% |
| CC(C)c1ccc2ncnc(N[C@H]3CCc4[nH]cnc4C3)c2c1 | 97% |
| CCOC(=O)c1nccc(C#N)c1Cl | 0% |
| Cc1cc(C(=O)N2CCCC[C@H]2c2nc(=O)[nH][nH]2)nn1C(F)F | -2% |
| O=C(Nc1ccccc1)C(=O)Nc1ccc2ncc(Cl)n2c1 | -3% |
| O=C1NCCC[C@@H]1NS(=O)(=O)N1CCc2ccccc2C1 | 0% |
| CC(C)(NCc1ccccc1Cl)C(=O)O | 4% |
| Cc1ccsc1CNCc1ccc2c(c1)OCO2 | -17% |

| Structure (SMILES) | % Inhibition |
| --- | --- |
| COc1cc(OC)c(OC)cc1CNC(C)C | -2% |
| Cc1nc(Nc2ccc(F)cc2)nc2c1ncn2-c1ccc(F)cc1 | -18% |
| Cc1cc(NC(=O)C(=O)NC2CC(C)CC(C)(C)C2)n(-c2nc3c(c(=O)[nH]2)CCC3)n1 (configuration not stated) | 90% |
| COC1CCCC1NC(=O)Nc1ncc(Br)cc1C (configuration not stated) | 74% |
| COc1ccc(-n2cnc3cc(NCc4cccs4)ccc32)cc1 | -10% |
| CC(C)CC1NC2(C(=O)N(Cc3ccc(F)cc3)c3ccccc32)C2C(=O)N(c3ccccc3)C(=O)C12 (configuration not stated) | 6% |
| COc1ccc(OC)c(-c2csc(N3C(=O)CC4CS(=O)(=O)CC43)n2)c1 (configuration not stated) | 7% |
| Cc1ccc2c(c1)c1c(n2S(=O)(=O)c2ccc(C(C)(C)C)cc2)CCCN(C)C1 | 76% |
| COc1ccc(CC(=O)N2CCC3(CC[C@@H]3O)CC2)cc1Cl | 1% |
| COc1cc(-c2nnc3n2CC(C)(C)CN3)cc(OC)c1OC | 1% |
| Cc1cc(C)n(C(=O)CNC(=O)c2ccccn2)n1 | 2% |
| CN1CCN(C(=O)[C@@H]2Cc3ccccc32)CC1 | 2% |
| Cc1nn(-c2nncc(-c3ccc(Cl)cc3)n2)c2c1[C@@H](c1cc(F)ccc1F)CC(=O)N2 | 13% |
| O=C1O[C@@H](CO)CN1c1cccc(F)c1 | -4% |
| CCN(CC)C(=O)[C@@H]1CCCN1C(=O)CCCc1ccccn1 | -18% |
| CCN1C(=O)Cc2cc(NS(=O)(=O)Cc3ccccc3)ccc21 | -5% |
| CNC(=NCc1ccc(-c2ccc(OC)cc2)s1)NC | 0% |
| CN1CCC(N2CCN(Cc3ccc4cc(O)ccc4c3)CC2)CC1 | 46% |
| CC(C)(C)OC(=O)NCC#Cc1cccc(F)c1 | -23% |
| COc1nc(-c2cccc(C(=O)N3C[C@@H]4CC[C@H](C3)C(=O)N4)c2)ncc1F | 67% |
| Cc1ccc(NC(=N)NC2=N[C@@H](CC(=O)Nc3cccc(C(F)(F)F)c3)C(=O)N2)cc1 | -13% |
| CNS(=O)(=O)c1ccc(NCc2nnc3ccccn23)c(F)c1 | 1% |
| Cc1ccc(S(=O)(=O)N(CC(=O)N[C@@H](C)c2ccccc2)c2cccc(Br)c2)cc1 | 8% |
| C[C@](O)(CNC(=O)Cn1nc2ccccn2c1=O)c1cccs1 | -1% |
